Measured values: PubChem BioAssay AID1347073 (National Center for Advancing Translational Sciences (NCATS), 2019)
Out of some 45,000 compounds screened, about 200 (0.44%) were called active. Not shown: some 7% with an inconclusive outcome. Calls follow the shape of the dose curve; as a rule, active = well fitted activation curve with a large enough effect; inconclusive = small, poorly fitted or top-dose-only effect; inactive = no such curve, though single readings can be large or run the other way. The list shows a part of the results.

test: qHTS of TDP-43 Inhibitors: NCGC Sytravon Library Screen; conditions: yeast TDP-43 toxicity rescue, BacTiter-Glo growth, 24 h; series mostly up to 46.1 µM; growth rescue (activation): at the top concentration; also: 0% is about no effect; nearly all actives have a fitted effect of over 55% in size
In short: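 TDP-43-expressing yeast, pregrown in raffinose, seeded at OD600 0.02 in galactose medium with compound for 24 hr at 30 deg C. Growth read by BacTiter-Glo luminescence, so rescue of toxicity appears as activation.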

Row | SMILES | growth rescue (activation)
1 | O=C(CCc1nnc(CCCCc2ccccc2)o1)NC1CCCC1 | inactive: 10.2%
2 | CC(=O)c1cc(-c2ccc(F)cc2)n(CCC(=O)Nc2cccc(C)n2)c1C | inactive: -10.3%
3 | O=C(O)c1ccc(-n2nnc3ccccc32)c([N+](=O)[O-])c1 | inactive: 13.5%
4 | O=C(O)c1ccccc1/C=N/N1CCN(C2c3ccccc3-c3ccccc32)CC1 | inactive: 7.41%
5 | CC(C)(C)c1ccc(CC(=O)N2CCC2(C)C(=O)N2CCCCC2)cc1 (configuration not stated) | inactive: 1.83%
6 | COc1ccc(CNC(=O)COC(=O)c2cccs2)cc1 | inactive: 19.9%
7 | N#Cc1nc(-c2ccc(OCc3ccccc3)cc2)oc1NCc1cccnc1 | inactive: -10%
8 | NC(=O)NC(=O)CN1c2cccc3cccc(c23)S1(=O)=O | inactive: 5.3%
9 | CCC(=O)NCCNC(=O)c1c(SC)nsc1SC | inactive: 0.918%
10 | COC(=O)NCC(c1cccnc1)N1CCN(c2ccccc2OC)CC1 (configuration not stated) | inactive: 17.4%
11 | CCCNC(=O)CCCCn1c(=S)[nH]c2c([nH]c3ccc(OC)cc32)c1=O | inactive: -7.1%
12 | O/N=C(\c1ccccc1)C(O)c1ccccc1 (configuration not stated) | inactive: -0.0583%
13 | CN(C)S(=O)(=O)c1cccc(C(=O)Nc2n[nH]c(C(F)(F)F)n2)c1 | inactive: 10%
14 | CCN(CC(=O)NC1CCS(=O)(=O)C1)C(=O)/C=C/c1cccs1 (configuration not stated) | inactive: -9.99%
15 | O=C(CN1CCN(S(=O)(=O)c2ccccc2F)CC1)N1CCc2ccccc2C1 | inactive: -9.3%
16 | CCOc1ccc(OCC)c(Nc2nc3ccccc3n3nnnc23)c1 | inactive: 6.79%
17 | COc1ccc(-c2nc(NC(=O)C3CC(=O)N(c4ccc5c(c4)OCCO5)C3)sc2C)cc1 (configuration not stated) | inactive: 9.88%
18 | COc1ccccc1NS(=O)(=O)c1ccc2oc(SCc3ccc(C#N)cc3)nc2c1 | inactive: 5.56%
19 | O=C(Nc1ccccc1)/C(=C/c1ccc([N+](=O)[O-])cc1)NC(=O)c1ccco1 | inactive: -9.91%
20 | CCCN1CCN(CCCNC(=O)C2CCN(c3nnc(-n4cccc4)s3)CC2)CC1 | inactive: -7.39%
21 | Cc1ccnc(SCC(=O)Nc2sc3c(c2C#N)CCCC3)n1 | inactive: 10.9%
22 | CCN(CC)S(=O)(=O)c1cccc(C(=O)N[C@H](C(=O)NNC(=O)c2ccccc2)C(C)C)c1 | inactive: 7.7%
23 | COc1ccc(/C=C/c2c([N+](=O)[O-])c(=O)n(C)c(=O)n2C)c(OC)c1OC | inactive: 0.985%

Row | SMILES | growth rescue (activation)
24 | COc1ccc(S(=O)(=O)N2CCN(CC(=O)N3CCOCC3)CC2)cc1OC | inactive: 9.96%
25 | CCCc1nnc(NC(=O)C2CCN(C(=O)c3ccco3)CC2)s1 | inactive: -3.1%
26 | O=C(O)CCCC(=O)NNc1ncnc2ccccc12 | inactive: -1.32%
27 | COc1ccc(N(CC(=O)NCCOc2ccccc2)S(=O)(=O)c2ccc(C)cc2)cc1 | inactive: -2.65%
28 | CCc1ccc(N(C(=O)c2csnn2)C(C(=O)NC(C)(C)C)c2cccnc2)cc1 (configuration not stated) | inactive: 8.26%
29 | CC(C)C(=O)N[C@H]1CCC2C3CC=C4C[C@@H](O)CC[C@]4(C)C3CC[C@@]21C (some centres not stated) | inactive: -1.06%
30 | O=C1CN(C(=O)COC(=O)c2ccccc2O)c2ccccc2N1 | inactive: -0.578%
31 | CC(=O)c1cccc(NC(=O)N2CCC(C(=O)c3ccc(F)cc3)CC2)c1 | inactive: -9.37%
32 | CCC(=O)Nc1ccc(C2C(=O)c3ccccc3C2=O)cc1 | inactive: -13.2%
33 | C/C(=C\C(=O)OCC(=O)NCc1ccccc1)C(=O)OCC(=O)NCc1ccccc1 | inactive: -0.0188%
34 | COc1ccc(Cl)c(-c2cc(C(=O)Nc3ccccc3)[nH]n2)c1 | inactive: 1.2%
35 | CN1C(=S)SC2CS(=O)(=O)CC21C (configuration not stated) | inactive: 3.27%
36 | CCCCC(CC)C(=O)NCC(C)NC(=O)C(CC)CCCC (configuration not stated) | inactive: 13.8%
37 | CCC(C)C(=O)Nc1cc(Cl)ccc1C(=O)O (configuration not stated) | inactive: 13.7%
38 | COc1ccc([N+](=O)[O-])cc1NC(=O)CSc1nc(C)c(C)c(C)n1 | inactive: 0.83%
39 | COc1cccc(CNC(=O)CSc2cc(=O)n(C)c3ccccc23)c1 | inactive: 16.2%
40 | Cc1cccc(N2CCN(C(=O)CCc3nc4ccccc4c(=O)[nH]3)CC2)c1C | inactive: 15.8%
41 | CN(C)S(=O)(=O)c1cccc(NC(=O)CCNC(=O)c2ccccc2Cl)c1 | inactive: 1.79%
42 | O=c1[nH]ncc(N2CCCC2)c1Cl | inactive: 2.19%
43 | Cc1ccc(Nc2nc(-c3ccc(S(=O)(=O)N4CCOCC4)cc3)cs2)cc1Cl | inactive: -12.2%
44 | O=C(CCC(=O)c1ccc(F)cc1)Nc1cc(Cl)cc(Cl)c1 | inactive: 18.6%
45 | O=C(O)CSc1nnc(COc2ccc(Br)cc2)n1-c1ccccc1 | inactive: 6.48%
46 | COc1cccc(OC)c1C(=O)Nc1ccc([N+](=O)[O-])cn1 | inactive: 19.6%

Row | SMILES | growth rescue (activation)
47 | O=C(c1cc(S(=O)(=O)N2CCOCC2)ccc1Cl)N1CCCCC1CO (configuration not stated) | inactive: 3.67%
48 | Cc1ccccc1CSc1nnc([C@@H]2CCCN2)o1 | inactive: 4.34%
49 | Cc1onc(-c2ccccc2)c1C(=O)OCC(=O)N(C)c1ccccc1 | inactive: 13.1%
50 | Cc1ccc(N(CC(=O)NC2CCCC2)C(=O)CCC(=O)Nc2ccccn2)cc1C | inactive: 7.76%
51 | CC(=O)Oc1ccc(C)cc1N1C(=O)c2ccc(C(=O)O)cc2C1=O | inactive: -10.3%
52 | COc1ccc(-c2nc(S(=O)(=O)c3ccc(Cl)cc3)c(N3CCCCCC3)o2)cc1 | inactive: -1.33%
53 | COc1ccc(-n2nc(C(=O)NCC(=O)NCCCN3CCN(C)CC3)c3ccccc3c2=O)cc1OC | inactive: -17.2%
54 | CC(=O)Nc1ccc(S(=O)(=O)NCC2CCC(C(=O)NCCCN3CCCC3=O)CC2)cc1 (configuration not stated) | inactive: 15.7%
55 | O=S(=O)(NCc1cccnc1)c1ccc(Br)c2ccccc12 | inactive: 20.1%
56 | O=C(O)c1ccccc1C(=O)c1cccs1 | inactive: 12.3%
57 | COc1ccc(-n2c(=S)[nH]c3cc(C(=O)NCc4ccco4)ccc3c2=O)cc1OC | inactive: -0.459%
58 | C[C@H](NC(=O)c1ccco1)C(=O)OCC(=O)N1CC(=O)Nc2ccccc21 | inactive: -1.02%
59 | CN(C)c1ccc(-c2ccnc3c2CC(C)(C(=O)Nc2ccc4c(c2)OCO4)O3)cc1 (configuration not stated) | inactive: 8.36%
60 | COc1cc(NC(=O)c2ccccc2F)ccc1NC(=O)c1ccccc1Cl | inactive: -2.94%
61 | CC(C)Oc1ccc(C2CC(=O)N(c3cccc(/C=C/C(=O)O)c3)C2=O)cc1 (configuration not stated) | inactive: 11.1%
62 | C=CCn1c(SCC(=O)N(C)C2CCCCC2)nnc1C1CC1 | inactive: 15%
63 | Cc1cccc(Nc2nnc(SCC(=O)NCC3CCCO3)s2)c1 (configuration not stated) | inactive: 5.47%
64 | CCN(C(=S)NC(=O)c1ccccc1Br)C1CCCCC1 | inactive: 8.45%
65 | CCCOC(=O)Nc1ccc(S(=O)(=O)Nc2ncccn2)cc1 | inactive: 5.21%
66 | NS(=O)(=O)c1cc(C(=O)N=Nc2c(O)[nH]c3ccccc23)ccc1Cl | inactive: -4.45%
67 | Cc1ccc(S(=O)(=O)N2CCN(S(=O)(=O)c3ccc4c(c3)OCCO4)CC2)cc1 | inactive: -31.3%
